The antibiotic and cytotoxicity screens of Wong et al. (2023)
This is one part of the list.

Key:
HSkMC = human skeletal muscle cells; assay: cytotoxicity call (relative viability < 0.9); conditions: 10 µM
HepG2 = assay: cytotoxicity call (relative viability < 0.9); conditions: 10 µM
S. aureus RN4220 = assay: growth inhibition call (relative growth <= 0.2); conditions: 50 µM

SMILES | cytotoxicity call (HSkMC) | cytotoxicity call (HepG2) | growth inhibition call (S. aureus RN4220)
CC(C)C#Cc1cnc2c(c1)C(=O)N([C@H](C)CO)C[C@H](C)[C@@H](CN(C)C(=O)c1ccc3c(c1)OCO3)O2 | inactive | inactive | inactive
O=C(C[C@H]1CC[C@H]2[C@@H](COC[C@@H](O)CN2C(=O)Nc2cccc(F)c2)O1)NCc1ccccc1Cl | inactive | inactive | inactive
Cc1noc(C)c1NC(=O)N(C)C[C@@H]1Oc2ccc(NS(=O)(=O)c3cn(C)cn3)cc2CC(=O)N([C@@H](C)CO)C[C@H]1C | inactive | inactive | inactive
C[C@@H]1CCCCO[C@H](CN(C)Cc2ccc(C(F)(F)F)cc2)[C@@H](C)CN([C@@H](C)CO)C(=O)c2cc(NC(=O)Cc3ccccc3)ccc2O1 | inactive | inactive | inactive
C[C@@H]1CN([C@@H](C)CO)C(=O)c2cc(NC(=O)Nc3ccc(C(F)(F)F)cc3)ccc2O[C@@H]1CN(C)S(=O)(=O)c1ccc(F)cc1 | inactive | active | inactive
C=CC[C@@H](CC(=O)N[C@@H](CO)Cc1ccccc1)C(=O)NCCOC(=O)[C@@H](CC=C)CC(=O)OC(C)(C)C | inactive | inactive | inactive
C[C@@H]1CCCCO[C@@H](CN(C)S(=O)(=O)c2ccccc2)[C@@H](C)CN([C@H](C)CO)C(=O)c2cc(NC(=O)Nc3ccc4c(c3)OCO4)ccc2O1 | inactive | inactive | inactive
O=C(N[C@H]1CC[C@@H](CCn2cc(C3(O)CCCC3)nn2)O[C@@H]1CO)C1CCOCC1 | inactive | inactive | inactive
C[C@@H]1CN([C@H](C)CO)S(=O)(=O)c2ccc(C#CC(C)(C)O)cc2O[C@@H]1CN(C)Cc1ccncc1 | inactive | inactive | inactive
O=C(O)c1cc(=O)cc(C(=O)O)o1 | inactive | inactive | inactive
COc1ccc2c3c(n(c2c1)C)[C@H](CO)N(C[C@]13CCN(CC1)C(=O)CN(C)C)C(=O)C1CCCCC1 | inactive | inactive | inactive
CN1CCN(C(=O)[C@H]2[C@H](CO)[C@H]3Cn4c(cccc4=O)[C@@H]2N3Cc2ccncc2)CC1 | inactive | inactive | inactive
C[C@H]1CN([C@@H](C)CO)C(=O)c2cc(Br)cnc2O[C@H]1CN(C)S(=O)(=O)c1cccs1 | inactive | inactive | inactive
C[C@H]1CCCCO[C@H](CN(C)C(=O)Nc2ccc3c(c2)OCO3)[C@@H](C)CN([C@@H](C)CO)C(=O)c2cc(NS(=O)(=O)c3cccs3)ccc2O1 | inactive | inactive | inactive
c1nc2c(c(N3CCOCC3)n1)CCNCC2 | inactive | inactive | inactive
C[C@@H]1CN([C@@H](C)CO)S(=O)(=O)c2ccc(C#CCN(C)C)cc2O[C@@H]1CN(C)Cc1ccc2c(c1)OCO2 | inactive | inactive | inactive
COCC(=O)N1C[C@H](C)[C@@H](OC)CN(C)C(=O)c2cc(NC(=O)c3ccc(OC)cc3)ccc2OC[C@H]1C | inactive | inactive | inactive
C[C@@H]1CN([C@@H](C)CO)S(=O)(=O)c2ccc(-c3cccnc3)cc2O[C@H]1CN(C)C(=O)NC1CCCCC1 | inactive | inactive | inactive
C[C@H](CO)N1C[C@H](C)[C@H](CN(C)CC2CC2)Oc2c(NS(=O)(=O)c3ccc(F)cc3)cccc2C1=O | inactive | inactive | inactive
CC(C)C#Cc1ccc2c(c1)O[C@H](CN(C)S(=O)(=O)c1cn(C)cn1)[C@H](C)CN([C@H](C)CO)S2(=O)=O | inactive | inactive | inactive
C[C@H](CO)N1C[C@H](C)[C@H](CN(C)S(=O)(=O)c2ccccc2)Oc2ccc(NC(=O)CCC(F)(F)F)cc2CC1=O | inactive | inactive | inactive
C[C@@H]1CCCCO[C@@H](CN(C)C(=O)C2CCCCC2)[C@@H](C)CN([C@H](C)CO)C(=O)c2cc(NS(=O)(=O)c3ccc(Cl)cc3)ccc2O1 | active | inactive | inactive
Cc1cc(C(=O)O)n(C)n1 | inactive | inactive | inactive
C=CCC[C@@H](Cc1ccc(F)cc1)C(=O)O[C@H](CNC(=O)[C@H](CC=C)CC(=O)N(CCO)Cc1ccccc1)c1ccccc1 | inactive | inactive | inactive
C[C@@H]1CCCCO[C@H](CN(C)Cc2ccc(C(F)(F)F)cc2)[C@H](C)CN([C@H](C)CO)C(=O)c2cc(NC(=O)Nc3ccccc3)ccc2O1 | active | active | inactive
CCOC(=O)Nc1c[n+](N2CCOCC2)no1 | inactive | inactive | inactive
